Laboratory results reported in article PMC10117376.
Substitutions are numbered along the chain they refer to. No constants are given. Whether binding was seen depends on the method and setting. Binding seen in cells or lysates may run through a third protein. Some entries that bind do so weakly or less than the wild type. Where a sequence is shown, tags or fusion partners need not be part of it. Each block holds one molecule with its values, some of them ahead of it.

Protein sequences, listed by entry. Tags and fused reporters are not part of them.
UniProt Q6W2J9: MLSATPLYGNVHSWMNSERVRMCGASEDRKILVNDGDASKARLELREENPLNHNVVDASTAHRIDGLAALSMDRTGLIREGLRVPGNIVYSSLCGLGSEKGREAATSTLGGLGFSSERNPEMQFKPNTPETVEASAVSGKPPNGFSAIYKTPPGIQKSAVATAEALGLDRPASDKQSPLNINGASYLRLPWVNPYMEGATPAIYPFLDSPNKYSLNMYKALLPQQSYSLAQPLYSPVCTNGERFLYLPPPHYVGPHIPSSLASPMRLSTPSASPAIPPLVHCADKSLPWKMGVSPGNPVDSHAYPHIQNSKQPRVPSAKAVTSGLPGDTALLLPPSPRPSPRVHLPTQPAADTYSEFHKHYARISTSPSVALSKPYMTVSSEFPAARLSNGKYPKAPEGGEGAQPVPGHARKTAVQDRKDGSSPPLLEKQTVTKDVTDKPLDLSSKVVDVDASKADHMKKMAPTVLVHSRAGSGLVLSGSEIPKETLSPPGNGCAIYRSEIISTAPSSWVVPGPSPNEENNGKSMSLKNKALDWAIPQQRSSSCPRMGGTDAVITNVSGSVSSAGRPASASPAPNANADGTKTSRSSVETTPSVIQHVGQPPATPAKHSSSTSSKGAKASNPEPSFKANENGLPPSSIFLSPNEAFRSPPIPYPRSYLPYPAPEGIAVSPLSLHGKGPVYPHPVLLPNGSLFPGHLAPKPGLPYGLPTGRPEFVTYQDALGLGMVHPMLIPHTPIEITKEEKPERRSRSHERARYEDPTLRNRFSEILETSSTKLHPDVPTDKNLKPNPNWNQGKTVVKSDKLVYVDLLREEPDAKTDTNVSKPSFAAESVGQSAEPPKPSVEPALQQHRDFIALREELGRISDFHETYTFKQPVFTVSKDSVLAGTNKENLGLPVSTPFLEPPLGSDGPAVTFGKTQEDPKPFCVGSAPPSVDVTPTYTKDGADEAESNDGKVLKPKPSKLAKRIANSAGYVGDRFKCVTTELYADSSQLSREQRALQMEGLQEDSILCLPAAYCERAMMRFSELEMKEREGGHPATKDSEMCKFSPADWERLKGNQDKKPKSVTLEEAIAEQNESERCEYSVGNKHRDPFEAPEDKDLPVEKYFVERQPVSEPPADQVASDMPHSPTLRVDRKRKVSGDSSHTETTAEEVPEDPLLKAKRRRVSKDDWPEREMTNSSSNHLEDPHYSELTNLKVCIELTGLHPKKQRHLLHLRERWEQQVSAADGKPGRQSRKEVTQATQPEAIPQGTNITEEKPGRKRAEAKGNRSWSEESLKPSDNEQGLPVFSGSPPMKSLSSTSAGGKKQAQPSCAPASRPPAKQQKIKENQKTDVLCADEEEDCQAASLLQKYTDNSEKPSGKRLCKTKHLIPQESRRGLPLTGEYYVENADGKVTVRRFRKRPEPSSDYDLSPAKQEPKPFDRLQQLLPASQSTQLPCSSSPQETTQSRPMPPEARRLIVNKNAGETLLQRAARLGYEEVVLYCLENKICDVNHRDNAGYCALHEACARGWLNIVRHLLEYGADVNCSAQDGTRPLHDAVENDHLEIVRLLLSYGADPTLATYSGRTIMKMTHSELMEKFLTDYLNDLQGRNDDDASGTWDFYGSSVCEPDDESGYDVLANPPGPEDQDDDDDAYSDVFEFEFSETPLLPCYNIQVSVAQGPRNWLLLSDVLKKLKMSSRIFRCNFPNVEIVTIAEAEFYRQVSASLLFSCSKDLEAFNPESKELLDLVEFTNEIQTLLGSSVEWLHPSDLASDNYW
UniProt Q8WXI9: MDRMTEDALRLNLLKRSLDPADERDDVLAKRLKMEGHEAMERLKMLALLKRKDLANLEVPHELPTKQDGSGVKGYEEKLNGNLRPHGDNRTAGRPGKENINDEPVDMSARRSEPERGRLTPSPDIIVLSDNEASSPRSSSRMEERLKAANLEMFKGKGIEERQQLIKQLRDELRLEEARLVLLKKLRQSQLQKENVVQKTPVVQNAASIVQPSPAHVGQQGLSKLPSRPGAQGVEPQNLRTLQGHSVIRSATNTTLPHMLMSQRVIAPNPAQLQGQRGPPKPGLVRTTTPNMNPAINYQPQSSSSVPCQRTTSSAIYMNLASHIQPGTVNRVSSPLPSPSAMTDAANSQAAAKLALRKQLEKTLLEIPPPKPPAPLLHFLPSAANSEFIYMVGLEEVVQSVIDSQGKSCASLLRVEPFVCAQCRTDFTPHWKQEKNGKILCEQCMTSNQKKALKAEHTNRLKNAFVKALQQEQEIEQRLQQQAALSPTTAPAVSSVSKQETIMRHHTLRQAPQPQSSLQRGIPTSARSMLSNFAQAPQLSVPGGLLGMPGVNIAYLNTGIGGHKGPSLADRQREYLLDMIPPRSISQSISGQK

What was measured:
Assay in all cases: FRET or BRET; BRET in live HEK293 cells transfected with pairs of N-terminal Rluc and YFP fusions, 96-well plates; EnduRen substrate 48 h after transfection; Rluc-NLS and YFP-NLS as controls
YFP-TBR1 p.P542R (human) = target: T1, YFP-TBR1 p.P542R (human) (UniProt Q16650)
T1 sequence: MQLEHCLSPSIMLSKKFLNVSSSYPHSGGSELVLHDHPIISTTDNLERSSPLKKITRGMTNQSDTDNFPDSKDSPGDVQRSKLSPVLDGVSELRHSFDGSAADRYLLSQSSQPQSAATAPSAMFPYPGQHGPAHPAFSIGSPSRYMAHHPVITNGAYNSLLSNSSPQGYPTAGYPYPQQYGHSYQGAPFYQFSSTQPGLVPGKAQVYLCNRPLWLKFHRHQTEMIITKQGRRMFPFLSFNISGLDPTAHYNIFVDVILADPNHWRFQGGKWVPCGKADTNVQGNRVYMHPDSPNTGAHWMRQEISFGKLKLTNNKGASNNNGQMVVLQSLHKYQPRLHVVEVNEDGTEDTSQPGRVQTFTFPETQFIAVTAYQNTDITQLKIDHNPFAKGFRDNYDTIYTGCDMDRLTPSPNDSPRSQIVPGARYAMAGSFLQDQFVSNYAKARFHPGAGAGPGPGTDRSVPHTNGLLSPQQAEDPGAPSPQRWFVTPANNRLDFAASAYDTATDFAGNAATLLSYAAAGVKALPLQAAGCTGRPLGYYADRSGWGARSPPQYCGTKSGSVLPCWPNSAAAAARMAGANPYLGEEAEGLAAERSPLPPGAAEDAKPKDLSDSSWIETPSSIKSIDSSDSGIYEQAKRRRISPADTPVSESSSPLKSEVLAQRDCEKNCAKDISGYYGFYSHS

YFP-TBR1 p.K228E (human) = target: T2, YFP-TBR1 p.K228E (human) (UniProt Q16650)
T2 sequence: T1 sequence with K228E, R542P

YFP-TBR1 p.S568* (human) = target: T3, YFP-TBR1 p.S568* (human) (UniProt Q16650)
T3 sequence: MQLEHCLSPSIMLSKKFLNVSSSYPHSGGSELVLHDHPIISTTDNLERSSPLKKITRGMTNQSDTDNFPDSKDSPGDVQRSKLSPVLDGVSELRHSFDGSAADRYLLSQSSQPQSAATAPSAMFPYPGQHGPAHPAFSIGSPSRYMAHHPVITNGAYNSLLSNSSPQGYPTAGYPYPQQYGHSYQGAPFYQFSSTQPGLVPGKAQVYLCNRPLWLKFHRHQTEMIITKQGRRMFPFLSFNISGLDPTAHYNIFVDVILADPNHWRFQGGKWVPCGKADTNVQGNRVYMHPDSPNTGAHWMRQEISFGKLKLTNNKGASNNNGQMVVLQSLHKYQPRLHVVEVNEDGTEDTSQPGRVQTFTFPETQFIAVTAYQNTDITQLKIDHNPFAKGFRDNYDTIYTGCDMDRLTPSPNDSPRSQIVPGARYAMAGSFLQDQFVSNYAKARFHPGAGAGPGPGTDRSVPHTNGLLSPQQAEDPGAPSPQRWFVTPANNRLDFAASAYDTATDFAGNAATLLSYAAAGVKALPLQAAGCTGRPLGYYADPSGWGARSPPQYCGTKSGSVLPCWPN

YFP-TBR1 p.N394* (human) = target: T4, YFP-TBR1 p.N394* (human) (UniProt Q16650)
T4 sequence: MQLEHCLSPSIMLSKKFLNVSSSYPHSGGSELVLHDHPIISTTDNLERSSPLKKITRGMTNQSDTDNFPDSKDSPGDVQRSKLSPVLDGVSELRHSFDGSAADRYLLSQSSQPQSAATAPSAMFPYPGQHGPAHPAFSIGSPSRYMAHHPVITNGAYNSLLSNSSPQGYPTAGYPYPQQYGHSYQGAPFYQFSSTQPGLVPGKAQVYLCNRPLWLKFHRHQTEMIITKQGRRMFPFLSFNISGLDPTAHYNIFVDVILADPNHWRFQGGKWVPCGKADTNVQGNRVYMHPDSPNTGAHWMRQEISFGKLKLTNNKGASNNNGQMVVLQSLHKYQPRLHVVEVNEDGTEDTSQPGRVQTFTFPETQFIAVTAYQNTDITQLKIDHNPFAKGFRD

Molecule: Rluc-BCOR (from UniProt Q6W2J9 1-1755)
- binding (YFP-TBR1 p.P542R (human)): binds
- binding (YFP-TBR1 p.K228E (human)): binds
- binding (YFP-TBR1 p.S568* (human)): binds
- binding (YFP-TBR1 p.N394* (human)): no binding

Molecule: Rluc-GATAD2B (from UniProt Q8WXI9 1-593)
- binding (YFP-TBR1 p.P542R (human)): binds
- binding (YFP-TBR1 p.K228E (human)): binds
- binding (YFP-TBR1 p.S568* (human)): binds
- binding (YFP-TBR1 p.N394* (human)): no binding

B3: Rluc-NR2F2 (protein, UniProt P24468 1-414)
chain: MAMVVSTWRDPQDEVPGSQGSQASQAPPVPGPPPGAPHTPQTPGQGGPASTPAQTAAGGQGGPGGPGSDKQQQQQHIECVVCGDKSSGKHYGQFTCEGCKSFFKRSVRRNLSYTCRANRNCPIDQHHRNQCQYCRLKKCLKVGMRREAVQRGRMPPTQPTHGQFALTNGDPLNCHSYLSGYISLLLRAEPYPTSRFGSQCMQPNNIMGIENICELAARMLFSAVEWARNIPFFPDLQITDQVALLRLTWSELFVLNAAQCSMPLHVAPLLAAAGLHASPMSADRVVAFMDHIRIFQEQVEKLKALHVDSAEYSCLKAIVLFTSDACGLSDVAHVESLQEKSQCALEEYVRSQYPNQPTRFGKLLLRLPSLRTVSSSVIEQLFFVRLVGKTPIETLIRDMLLSGSSFNWPYMAIQ
- binding (YFP-TBR1 p.P542R (human)): binds
- binding (YFP-TBR1 p.K228E (human)): binds
- binding (YFP-TBR1 p.S568* (human)): binds
- binding (YFP-TBR1 p.N394* (human)): binds

More lines, now with the values ahead:

- binding (YFP-TBR1 p.P542R (human)): binds
- binding (YFP-TBR1 p.K228E (human)): binds
- binding (YFP-TBR1 p.S568* (human)): binds
- binding (YFP-TBR1 p.N394* (human)): binds
B1: Rluc-NR2F1 (protein, UniProt P10589 1-423)
chain: MAMVVSSWRDPQDDVAGGNPGGPNPAAQAARGGGGGAGEQQQQAGSGAPHTPQTPGQPGAPATPGTAGDKGQGPPGSGQSQQHIECVVCGDKSSGKHYGQFTCEGCKSFFKRSVRRNLTYTCRANRNCPIDQHHRNQCQYCRLKKCLKVGMRREAVQRGRMPPTQPNPGQYALTNGDPLNGHCYLSGYISLLLRAEPYPTSRYGSQCMQPNNIMGIENICELAARLLFSAVEWARNIPFFPDLQITDQVSLLRLTWSELFVLNAAQCSMPLHVAPLLAAAGLHASPMSADRVVAFMDHIRIFQEQVEKLKALHVDSAEYSCLKAIVLFTSDACGLSDAAHIESLQEKSQCALEEYVRSQYPNQPSRFGKLLLRLPSLRTVSSSVIEQLFFVRLVGKTPIETLIRDMLLSGSSFNWPYMSIQCS

- binding (YFP-TBR1 p.P542R (human)): binds
- binding (YFP-TBR1 p.K228E (human)): no binding
- binding (YFP-TBR1 p.S568* (human)): binds
- binding (YFP-TBR1 p.N394* (human)): binds
B2: Rluc-ADNP (protein, UniProt Q9H2P0 1-1102)
chain: MFQLPVNNLGSLRKARKTVKKILSDIGLEYCKEHIEDFKQFEPNDFYLKNTTWEDVGLWDPSLTKNQDYRTKPFCCSACPFSSKFFSAYKSHFRNVHSEDFENRILLNCPYCTFNADKKTLETHIKIFHAPNASAPSSSLSTFKDKNKNDGLKPKQADSVEQAVYYCKKCTYRDPLYEIVRKHIYREHFQHVAAPYIAKAGEKSLNGAVPLGSNAREESSIHCKRCLFMPKSYEALVQHVIEDHERIGYQVTAMIGHTNVVVPRSKPLMLIAPKPQDKKSMGLPPRIGSLASGNVRSLPSQQMVNRLSIPKPNLNSTGVNMMSSVHLQQNNYGVKSVGQGYSVGQSMRLGLGGNAPVSIPQQSQSVKQLLPSGNGRSYGLGSEQRSQAPARYSLQSANASSLSSGQLKSPSLSQSQASRVLGQSSSKPAAAATGPPPGNTSSTQKWKICTICNELFPENVYSVHFEKEHKAEKVPAVANYIMKIHNFTSKCLYCNRYLPTDTLLNHMLIHGLSCPYCRSTFNDVEKMAAHMRMVHIDEEMGPKTDSTLSFDLTLQQGSHTNIHLLVTTYNLRDAPAESVAYHAQNNPPVPPKPQPKVQEKADIPVKSSPQAAVPYKKDVGKTLCPLCFSILKGPISDALAHHLRERHQVIQTVHPVEKKLTYKCIHCLGVYTSNMTASTITLHLVHCRGVGKTQNGQDKTNAPSRLNQSPSLAPVKRTYEQMEFPLLKKRKLDDDSDSPSFFEEKPEEPVVLALDPKGHEDDSYEARKSFLTKYFNKQPYPTRREIEKLAASLWLWKSDIASHFSNKRKKCVRDCEKYKPGVLLGFNMKELNKVKHEMDFDAEWLFENHDEKDSRVNASKTADKKLNLGKEDDSSSDSFENLEEESNESGSPFDPVFEVEPKISNDNPEEHVLKVIPEDASESEEKLDQKEDGSKYETIHLTEEPTKLMHNASDSEVDQDDVVEWKDGASPSESGPGSQQVSDFEDNTCEMKPGTWSDESSQSEDARSSKPAAKKKATMQGDREQLKWKNSSYGKVEGFWSKDQSQWKNASENDERLSNPQIEWQNSTIDSEDGEQFDNMTDGVAEPMHGSLAGVKLSSQQA
